Common to all, as to experiment: uncleaved DNA left, log2 of reads against the no-enzyme library (log2 ratio); higher = less cleavage (more negative = more Rep cleavage of the k-mer); sequences stand for … in CTCGTCCG…ACCGGAGA
Assay [1] deals with T1, Rep nickase domain of Muscovy duck circovirus.
T1 sequence (residues 1-111, tag not shown): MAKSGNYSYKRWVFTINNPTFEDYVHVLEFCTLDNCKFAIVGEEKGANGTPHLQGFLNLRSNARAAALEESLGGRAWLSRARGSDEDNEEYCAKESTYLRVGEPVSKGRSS
As for the experimental part: (§1)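 A pool of 90-nt single-stranded DNAs with seven random bases just before the constant AC of the nick site (name = the seven bases) was cut by 3 µM recombinant His6-SUMO-tagged Rep nickase domain (300 nM DNA, 50 mM HEPES pH 8.0, 50 mM NaCl, 1 mM MnCl2, 1 h, 37 °C, three replicates). Uncut DNA was amplified and sequenced.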

In assay [2] the test system is T2, Rep nickase domain of banana bunchy top virus.
T2 sequence (residues 1-94, tag not shown): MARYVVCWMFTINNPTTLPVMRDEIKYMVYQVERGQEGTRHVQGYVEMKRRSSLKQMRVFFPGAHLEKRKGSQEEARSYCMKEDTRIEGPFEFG
As for the experimental part: as §1
Assay [3] concerns T3, Rep nickase domain of cabbage leaf curl virus.
T3 sequence (residues 1-116, tag not shown): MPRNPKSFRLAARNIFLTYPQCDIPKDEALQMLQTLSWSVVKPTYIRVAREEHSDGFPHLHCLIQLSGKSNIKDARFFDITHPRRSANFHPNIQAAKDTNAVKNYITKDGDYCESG
The procedure: as §1
For assay [4], the system named is T4, Rep nickase domain of chickpea chlorotic dwarf virus.
T4 sequence (residues 1-124, tag not shown): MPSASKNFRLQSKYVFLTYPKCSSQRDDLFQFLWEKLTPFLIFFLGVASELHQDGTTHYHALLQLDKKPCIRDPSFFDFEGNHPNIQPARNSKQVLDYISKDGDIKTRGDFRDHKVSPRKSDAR
The procedure:
as §1

Assay [5] has as its system T5, Rep nickase domain of faba bean necrotic yellows virus.
T5 sequence (residues 1-98, tag not shown): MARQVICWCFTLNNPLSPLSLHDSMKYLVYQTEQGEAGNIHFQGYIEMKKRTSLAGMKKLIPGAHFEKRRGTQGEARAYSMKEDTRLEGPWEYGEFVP
As for the experimental part:
as §1

The subject of assay [6] is T6, Rep nickase domain of maize striate mosaic virus.
T6 sequence (residues 1-117, tag not shown): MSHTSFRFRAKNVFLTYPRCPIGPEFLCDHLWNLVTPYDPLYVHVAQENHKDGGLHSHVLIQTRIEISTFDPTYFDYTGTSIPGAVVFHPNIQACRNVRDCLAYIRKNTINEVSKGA
As for the experimental part:
as §1

Assay [7] concerns T7, Rep nickase domain of porcine circovirus 2.
T7 sequence (residues 2-116, tag not shown): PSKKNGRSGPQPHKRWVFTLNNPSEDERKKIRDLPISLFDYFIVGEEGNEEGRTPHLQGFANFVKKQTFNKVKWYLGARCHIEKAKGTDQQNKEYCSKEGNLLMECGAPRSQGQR
The procedure: as §1
Assay [8] concerns T8, Rep nickase domain of tomato golden mosaic virus.
T8 sequence (residues 1-124, tag not shown): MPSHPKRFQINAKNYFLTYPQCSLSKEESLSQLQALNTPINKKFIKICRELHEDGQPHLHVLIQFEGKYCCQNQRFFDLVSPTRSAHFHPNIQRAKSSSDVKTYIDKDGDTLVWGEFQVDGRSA
The procedure:
as §1

The subject of assay [9] is T9, Rep nickase domain of tomato yellow leaf curl virus.
T9 sequence (residues 1-136, tag not shown): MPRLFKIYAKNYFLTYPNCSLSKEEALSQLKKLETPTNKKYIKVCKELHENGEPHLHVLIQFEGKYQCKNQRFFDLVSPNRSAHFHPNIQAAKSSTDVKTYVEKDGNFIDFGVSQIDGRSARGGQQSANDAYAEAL
The procedure:
as §1

Assay [10] has as its system T10, Rep nickase domain of wheat dwarf virus.
T10 sequence (residues 1-137, tag not shown): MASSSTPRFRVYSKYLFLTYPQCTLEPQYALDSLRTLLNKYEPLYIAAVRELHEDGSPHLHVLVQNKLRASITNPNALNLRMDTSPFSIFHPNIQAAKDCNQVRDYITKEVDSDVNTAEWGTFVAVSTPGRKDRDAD
As for the experimental part: as §1

The list shows a part of the results. Cleavage of a single-stranded DNA pool by Rep nickase domains was read by sequencing (1 h at 37 °C, 3 µM enzyme); the outer parts of the 90-letter strands are left off. Uncut reads are compared with the no-enzyme pool on a log2 scale; uncut sequences lie near 0, cut ones below; no hit call is given. Because reads are shares of a total, they shift together, so uncut sequences can rise above 0 when many others are cut.

The values that follow come from the supplement of paper PMC7826260.

As to CTCAAGG, the “uncleaved DNA left (log2)” value in [1] stood at 0.117; in assay [2], 0.0487; in [3], 0.531; in [4], 1.4; in assay [5] it was 0.0893; in assay [6], 1.38. The “uncleaved DNA left (log2)” value in [7] came out at 0.111; in assay [8] it was 0.137; in [9] it was 0.00192; in [10] it was 0.121.
In the case of ATGCAGC, the “uncleaved DNA left (log2)” value in [1] is 0.00652; in assay [2], 0.049; in assay [3] it was -0.528; in assay [4], -0.561; in [5] it was -0.0412; in [6] it was -1.04. The “uncleaved DNA left (log2)” value in [7] is 0.0758; in assay [8], 0.0161; in [9] it was -0.0318; in [10] it was 0.0807.
In the case of GGCAGCC, the “uncleaved DNA left (log2)” value was determined as 0.166 in [1]; 0.173 in [2]; 0.618 in assay [3]; 1.42 in assay [4]; 0.0634 in assay [5]; 1.73 in [6]. Also, the “uncleaved DNA left (log2)” value in [7] is 0.244; in assay [8], 0.0755; in [9], 0.113; in assay [10] it was 0.231.
As to GCATTAT, the “uncleaved DNA left (log2)” value in assay [1] is -0.228; in assay [2], -0.00469; in [3], 0.104; in assay [4], -0.0195; in assay [5] it was 0.00705; in [6] it was -0.0215. In addition, the “uncleaved DNA left (log2)” value in [7] was -0.477; in assay [8] it was 0.0998; in assay [9] it was 0.0477; in assay [10] it was 0.0723.
As for ACAGCGT, the “uncleaved DNA left (log2)” value was -0.0392 in assay [1]; -0.182 in assay [2]; -0.456 in [3]; 0.51 in assay [4]; -0.0257 in assay [5]; 0.00976 in assay [6]. Further, the “uncleaved DNA left (log2)” value is 0.0973 in assay [7], -0.00232 in assay [8], -0.077 in assay [9] and -0.165 in assay [10].
For the sequence ACCCTTG, the “uncleaved DNA left (log2)” value in assay [1] is 0.0859; in assay [2], 0.00703; in assay [3], -0.786; in assay [4] it was -1.04; in assay [5] it was -0.0623; in [6], -1.09. The “uncleaved DNA left (log2)” value in assay [7] is 0.0621; in [8], 0.0599; in assay [9] it was -0.00481; in assay [10], 0.0673.
With AGGCCCC, the “uncleaved DNA left (log2)” value in assay [1] is -0.081; in assay [2], 0.0081; in assay [3], 0.777; in assay [4], 1.51; in [5] it was 0.0553; in assay [6], 1.98. For the same sequence, the “uncleaved DNA left (log2)” value was -0.0148 in assay [7], 0.0968 in [8], 0.00991 in [9] and 0.162 in assay [10].
Take CTTAAAT: the “uncleaved DNA left (log2)” value in assay [1] was 0.118; in [2] it was 0.0987; in assay [3], 0.0224; in [4], -0.583; in [5], 0.0732; in assay [6] it was -0.487. Further, the “uncleaved DNA left (log2)” value in [7] is -0.232; in assay [8] it was 0.0428; in assay [9], 0.0415; in [10], 0.137.
For the sequence GTGGCCT, the “uncleaved DNA left (log2)” value was -0.000896 in [1]; -0.222 in assay [2]; 0.369 in assay [3]; 1.16 in [4]; -0.0202 in assay [5]; 1.86 in assay [6]. The “uncleaved DNA left (log2)” value in assay [7] was -0.00477; in [8], -0.111; in assay [9] it was -0.0874; in assay [10] it was 0.0256.
Consider CCTGACT, for which the “uncleaved DNA left (log2)” value in assay [1] was -0.128; in assay [2] it was -0.151; in assay [3], -0.0318; in [4] it was -0.947; in assay [5], -0.132; in assay [6] it was 0.305. In addition, the “uncleaved DNA left (log2)” value in [7] was -0.309; in assay [8], -0.126; in assay [9], -0.0828; in assay [10], -0.252.
As to AACGGTC, the “uncleaved DNA left (log2)” value in assay [1] was -0.00671; in assay [2], -0.0173; in [3] it was 0.0486; in [4] it was 0.505; in [5], 0.0191; in assay [6] it was 0.521. For the same sequence, the “uncleaved DNA left (log2)” value in assay [7] was 0.0888; in assay [8], -0.00309; in [9] it was -0.0708; in assay [10] it was -0.0279.
Regarding CCTTCAG, the “uncleaved DNA left (log2)” value in [1] was 0.0517; in assay [2], -0.169; in assay [3], -0.676; in assay [4], -0.548; in [5], 0.0133; in [6], -1.03. Besides, the “uncleaved DNA left (log2)” value in [7] was 0.178; in assay [8], -0.0222; in assay [9], 0.0122; in [10], -0.191.
GCAGCGC: the “uncleaved DNA left (log2)” value in assay [1] was -0.0462; in [2], -0.0762; in [3], -0.705; in [4] it was -0.257; in assay [5], -0.0101; in assay [6] it was -0.799. Besides, the “uncleaved DNA left (log2)” value in [7] was 0.105; in [8], -0.0595; in [9], -0.0486; in assay [10], -0.126.
With CTTGACA, the “uncleaved DNA left (log2)” value is 0.0951 in assay [1]; 0.011 in assay [2]; -0.0312 in [3]; -1.91 in [4]; 0.0205 in assay [5]; -0.141 in assay [6]. Also, the “uncleaved DNA left (log2)” value in [7] is 0.0475; in assay [8], -0.0444; in [9], 0.106; in [10] it was 0.0286.
As for ATTCACG, the “uncleaved DNA left (log2)” value in assay [1] was -0.0515; in [2] it was -0.144; in assay [3] it was -0.952; in [4] it was -0.222; in assay [5], 0.03; in assay [6], -1.32. The “uncleaved DNA left (log2)” value is 0.116 in assay [7], -0.191 in assay [8], -0.167 in [9] and -0.18 in assay [10].
